Data taken from PubChem BioAssay AID445 (National Center for Advancing Translational Sciences (NCATS), 2006).
Among all 110,000 compounds or so, about 40 (0.04%) were called active. The shares of active, inactive and inconclusive entries below differ from those in the screen. Calls follow the shape of the dose curve; as a rule, active = well fitted curve in the direction sought with a large enough effect in the signal ratio (not every such curve was filed as active); inconclusive = small, poorly fitted or top-dose-only effect, or a change in a side signal; inactive = flat fitted curve, though single readings scatter; the % refers to the signal ratio. Potencies beside an inconclusive call are fits to weak or partial responses and may not hold up.
Potency is read from the fitted curve at half-maximal effect.

Assay: IkB Signaling;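 as to IkBa stabilization activation: 0% = basal untreated cells and 100% = reference inhibitor full response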
Settings: ABC-DLBCL IkBa-CBG/CBR dual luciferase ratio (green luciferase fused to IkBa over red control in OCI-Ly3 lymphoma cells), 4 h; IkBa stabilization activation: at 57.1 µM (top of the series), scaled: untreated 0%, proteasome inhibitor 100% unless noted
Procedure, shortened: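 Luminescence ratio of IκBα-fused green versus native red beetle luciferase in OCI-Ly3 cells, 4 h post-doxycycline with compound; red signal alone, scaled from basal (0%) to zero light (-100%), flagged nonspecific or cytotoxic effects.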
In the case of C/C=C/COC(=O)c1[nH]c2c(c1C)C(=O)CC(c1ccc(N(C)C)cc1)C2 (centres undefined), the “IkBa stabilization activation” value was inactive: 6.59%.
In the case of CCc1ccccc1Nc1cc(C(=O)NCCc2ccccc2)c2ccccc2n1, the IkBa stabilization activation was inconclusive: -2.34% [signal inhibitor].
For COc1ccccc1NC(=O)C1=C(C)Nc2nc3ccccc3n2C1c1cccc(Br)c1 (centres undefined), the IkBa stabilization activation was inconclusive: 13.1% [signal inhibitor].
With O=C(Cn1c(=O)n(-c2ccc(F)cc2)c(=O)c2sc3ccccc3c21)NC1CCCCC1 the IkBa stabilization activation was inconclusive: 3.97% [signal inhibitor].
With COc1ccc(OC)c(CCNc2nccn(-c3ccc(C)c(C)c3)c2=O)c1 the IkBa stabilization activation was inconclusive: 7.4% [signal inhibitor].
In the case of Cn1c(SCc2cccc(F)c2)nc2c([nH]c3ccccc32)c1=O, the “IkBa stabilization activation” value was inactive: 0.185%.
With O=C(NCC(c1cccnc1)N1CCOCC1)C(=O)Nc1ccc(F)cc1 (centres undefined) the IkBa stabilization activation was inconclusive: 0.0962% [signal inhibitor].
For Cc1ccc(CNC(=O)CCC(=O)N2Cc3ccccc3Oc3ncccc32)cc1, the “IkBa stabilization activation” value was inactive: 2.77%.
In the case of O=C(Nc1ccc2nc(SCC(=O)N3CCCc4ccccc43)sc2c1)c1cccc(Cl)c1, the IkBa stabilization activation was inconclusive: 5.25% [signal inhibitor].
With COc1ccc(CCNC(=O)C2CCN(c3nc4ccccc4nc3C(F)(F)F)CC2)cc1OC the IkBa stabilization activation was inconclusive: -0.526% [signal inhibitor].
In the case of CCOc1ccccc1-n1c(COc2ccc(C)cc2)nnc1SCC(N)=O, the Potency was inconclusive: 12.6 µM [signal inhibitor, partial curve].
With COc1ccc(C(=O)Oc2c(Sc3ccccc3)c(C)nn2-c2ccccc2)cc1OC the IkBa stabilization activation was inconclusive: 1.96% [signal inhibitor].
With COc1ccc(-c2noc(Cn3c(=O)c4ccccc4n(CC(=O)Nc4cccc(C(F)(F)F)c4)c3=O)n2)cc1 the IkBa stabilization activation was inconclusive: 8.8% [signal inhibitor].
In the case of N#Cc1c(N)nc(SCc2ccccc2)c(C#N)c1-c1ccco1, the IkBa stabilization activation was inconclusive: 2.01% [signal inhibitor].
In the case of CN1CCN(C2=Nc3cc(Cl)ccc3Nc3ccccc32)CC1, the IkBa stabilization activation was inconclusive: 0.829% [signal inhibitor].
In the case of CCOc1ccc(N(CC)S(=O)(=O)N2CCCC(C(=O)NCc3ccc(Cl)cc3)C2)cc1 (centres undefined), the “IkBa stabilization activation” value was inactive: 0.399%.
In the case of CCOC(=O)c1c(NC(=O)CN2CCOCC2)sc2c1CCCC2=O, the “IkBa stabilization activation” value was inactive: -1.57%.
In the case of O=C(c1cccc(Cl)c1)N(Cc1ccco1)Cc1ccccc1Cl, the IkBa stabilization activation was inconclusive: 3.04% [signal inhibitor].
With CCc1nc2onc(C)c2c(=O)n1CC(=O)O the “IkBa stabilization activation” value was inactive: 2.07%.
In the case of O=S(=O)(Nc1cccc(-c2ccc(N3CCCCCC3)nn2)c1)c1ccccc1, the “IkBa stabilization activation” value was inactive: -1.28%.
For CC(=O)N1c2ccccc2C(=O)C1N1CCCCC1 (centres undefined), the IkBa stabilization activation was inconclusive: 2.84% [signal inhibitor].
For Cc1nc(N)sc1-c1csc(Nc2ccccn2)n1, the IkBa stabilization activation was inconclusive: -4.08% [signal inhibitor].
In the case of COc1ccccc1NC(=O)Cn1c(=O)n(-c2cccc(Cl)c2)c(=O)c2c1c1cc(C)ccc1n2C, the IkBa stabilization activation was inconclusive: 10.4% [signal inhibitor].
With COc1cccc(NC(=O)CSc2nnc(-c3cccs3)o2)c1 the IkBa stabilization activation was inconclusive: 2.63% [signal inhibitor].
With Cc1cc(C)cc(Nc2nnc(-n3nc(C)cc3C)c3ccccc23)c1 the IkBa stabilization activation was inconclusive: 3.94% [signal inhibitor].
For Cc1cccc(OCC(=O)Nc2ccc(Cl)c(-c3nc4ccccc4[nH]3)c2)c1, the IkBa stabilization activation was inconclusive: 6% [signal inhibitor].
With CCN1CCN(Cc2c(O)ccc3oc(C)c(C(=O)Nc4ccc(C)cc4C)c23)CC1 the IkBa stabilization activation was inconclusive: 0.829% [signal inhibitor].
For CCc1ccccc1NC(=O)CSc1ncc(S(=O)(=O)c2ccccc2)c(=O)[nH]1, the IkBa stabilization activation was inconclusive: 2.26% [signal inhibitor].
In the case of CCN(CC(=O)Nc1c(C(=O)OC)[nH]c2ccc(Cl)cc12)c1ccc2c(c1)OCO2, the IkBa stabilization activation was inconclusive: -1.16% [signal inhibitor].
For Cc1oc(-c2ccc(Cl)cc2)nc1CSCC(=O)NCc1ccccc1Cl, the IkBa stabilization activation was inconclusive: -1.46% [signal inhibitor].
In the case of CCC(=O)N1CCc2cc(Br)cc(S(=O)(=O)N3CCCC(C(=O)NCc4ccc(OC)cc4)C3)c21 (centres undefined), the IkBa stabilization activation was inconclusive: -4.09% [signal inhibitor].
With O=C(c1ccccc1)c1coc2ccc(O)c(Cl)c12 the IkBa stabilization activation was inconclusive: 3.43% [signal inhibitor].
With CCCOc1ccc(C2c3c(-c4ccccc4O)n[nH]c3C(=O)N2CCCOCC)cc1OCC (centres undefined) the IkBa stabilization activation was inconclusive: 1.31% [signal inhibitor].
In the case of CCOC(=O)CSc1nc(NCc2ccco2)c2ccccc2n1, the “IkBa stabilization activation” value was inactive: 0.619%.
With O=C(Nc1cccc(F)c1)c1cccc2c1C(=O)N(C1CCCCC1)C2 the IkBa stabilization activation was inconclusive: 2.68% [signal inhibitor].
For Cc1ccc(Cl)cc1N1CCN(CCCNC(=O)c2nnc(Cc3cccc(Cl)c3)o2)CC1, the IkBa stabilization activation was inconclusive: -3.52% [signal inhibitor].
In the case of O=C(Cn1cc(C(=O)C2CC2)c2ccccc21)Nc1ccc(Br)cc1, the IkBa stabilization activation was inconclusive: 0.194% [signal inhibitor].
With CCC1CCCCN1CCCNC(=O)c1ccc2c(c1)N(Cc1ccc(Cl)cc1)C(=O)c1ccccc1S2(=O)=O (centres undefined) the IkBa stabilization activation was inconclusive: 0.661% [signal inhibitor].
For c1ccc(CSc2nnc3c(n2)OC(c2ccco2)Nc2ccccc2-3)cc1 (centres undefined), the Potency was inconclusive: 12.6 µM [signal inhibitor, partial curve].
With COc1ccccc1N1CCN(c2ccc(-c3nc(-c4ccccc4)no3)cc2[N+](=O)[O-])CC1 the “IkBa stabilization activation” value was inactive: 2.19%.
In the case of COc1ccc(-c2cc(N)n(S(=O)(=O)c3c(F)c(F)c(F)c(F)c3F)n2)cc1OC, the Potency was inconclusive: 6.31 µM [rising, single point].
With COCCOC(=O)c1c(C)oc2ccc(OC(=O)c3c(OC)cccc3OC)cc12 the IkBa stabilization activation was inconclusive: 1.1% [signal inhibitor].
For COc1ccc(C2c3sc(=O)[nH]c3SC3C4CCC(C4)C23)cc1 (centres undefined), the IkBa stabilization activation was inconclusive: 4.66% [signal inhibitor].
For Nc1ccc2oc(CCc3ccccc3)nc2c1, the Potency was inconclusive: 25.1 µM [signal inhibitor, partial curve].
